# Experimental data reported in PubChem BioAssay (NCATS).
# This is one part of the list. These are further read-outs of the screen, such as a control signal, another cell line or another target. No call is given for them. Compounds called inactive in the main read-out are mostly missing here. Words in brackets tell the shape of the fitted curve; partial curves, single points and poor fits give uncertain potencies.
# Experiment: qHTS Assay for Lipid Storage Modulators (AID 1519)
# Details: Drosophila S3 cells, BODIPY lipid droplet/cell ratio, laser cytometry, cells loaded with oleic acid
# Outline: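 Cells seeded at 5,000 per well were treated with compounds over a concentration series and loaded with oleic acid (400 uM, as added). Lipid droplet fluorescence (488 nm excitation, 500-530 nm channel) was read by laser-scanning cytometry and normalized to 20 uM Triacsin C.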
# [1] = measured here: cell count channel max response
# [2] = measured here: lipid channel max response
# [3] = measured here: lipid (BODIPY) channel AC50
# Tags tell the direction and shape of the fitted curve.
compound,measurement,setting,value
CN(C)c1ccc(/C=C2/C(=O)Nc3ccccc32)cc1,max response,[1],9.9%
same,max response,[2],-13.6%
NS(=O)(=O)c1cc2c(cc1Cl)N[C@@H]([C@@H]1C[C@@H]3C=C[C@H]1C3)NS2(=O)=O,max response,[1],21%
same,AC50,[3],"15.8 µM [rising, partial curve, poor fit]"
same,max response,[2],32%
COc1ccc(/C=C/C(=O)c2ccc(C)s2)cc1,max response,[1],89.1%
same,max response,[2],113%
CCn1c(=O)c2[nH]c(-c3ccccc3)nc2n(CC)c1=O,max response,[1],75.7%
same,max response,[2],79.8%
CCCCS(=N)(=O)CCC(N)C(=O)O (stereo not drawn),max response,[1],29.6%
same,max response,[2],24.5%
NC(=S)NCCCC(N)C(=O)O (stereo not drawn),max response,[1],34.8%
same,max response,[2],30.6%
COCCNc1ccnc(-c2ccccc2C)n1,max response,[1],26.2%
same,AC50,[3],"22.4 µM [rising, single point]"
same,max response,[2],33.9%
O=C(O)CC1CCCc2ccccc2C1O (stereo not drawn),max response,[1],5.41%
same,max response,[2],7.79%
COc1ccc2[nH]cc(CCNc3nc(-c4ccc(N(C)C)cc4)nc4ccccc34)c2c1,max response,[1],-34.6%
same,max response,[2],-47.6%
COc1ccc2c(c1)CCC1C2CC[C@@]2(C)C1CC[C@@H]2NCCCCCCN1C(=O)C=CC1=O (stereo partly drawn),max response,[1],55%
same,max response,[2],52.2%
COc1cc2c(CCNC(C)=O)c[nH]c2cc1O,max response,[1],48.4%
same,max response,[2],48.2%
CC(=O)N1CCC2(CCCN(c3cccc(-c4ccccc4)c3)C2)CC1,max response,[1],-1.99%
same,max response,[2],-40.1%
N#Cc1cccc(-c2ccc3ncnc(NCc4cccs4)c3c2)c1,max response,[1],-24.3%
same,AC50,[3],"3.16 µM [falling, single point]"
same,max response,[2],-36.7%
C=C1C(=O)OC2C1CC/C(C)=C/CCC1(C)OC21 (stereo not drawn),max response,[1],-19%
same,max response,[2],-57.5%
NS(=O)(=O)c1cc2c(cc1Cl)NC(C(Cl)Cl)NS2(=O)=O (stereo not drawn),max response,[1],20.8%
same,AC50,[3],"5.01 µM [rising, full curve, poor fit]"
same,max response,[2],31.9%
N[C@H](Cc1ccc(O)c(O)c1)C(=O)O,max response,[1],58.6%
same,max response,[2],58.4%
Fc1ccc(C(c2ccc(F)cc2)N2CCN(C/C=C\c3ccccc3)CC2)cc1,max response,[1],55.8%
same,max response,[2],62.8%
C=CC[C@H](N)C(=O)O,max response,[1],33.5%
same,max response,[2],34.4%
COc1ccc(-c2cc(=O)c3c(OC(C)=O)cc(OC(C)=O)cc3o2)cc1,max response,[1],5.67%
same,max response,[2],-21.3%
Cn1cc(-c2nc3cnc(N4CCNCC4)nc3n(Cc3ccc(F)cc3)c2=O)c2ccccc21,max response,[1],-104%
same,AC50,measured here: cell number channel AC50,"39.8 µM [falling, single point]"
same,max response,[2],-112%
O=C1c2ccccc2CC[C@H]1CNCCc1ccc(O)cc1,max response,[1],-0.333%
same,max response,[2],-92%
Cc1ccc(S(=O)(=O)NC(=O)NN2CCCCCC2)cc1,max response,[1],49.3%
same,max response,[2],46.7%
COc1ccc(/C=C/C(=O)c2cccs2)c(OC)c1,max response,[1],59%
same,max response,[2],44.4%
O=C(Nc1ccccc1)N1CCC2(CC1)CCN(C(=O)c1cccc(F)c1)CC2,max response,[1],13.5%
same,AC50,[3],"0.0316 µM [rising, full curve, poor fit]"
same,max response,[2],22.3%
COCCn1c(=O)c(-c2cc(F)cc(F)c2)nc2cnc(N(C)C)nc21,max response,[1],17.2%
same,AC50,[3],"3.16 µM [rising, full curve, poor fit]"
same,max response,[2],24.7%
Cc1cccc(CNc2nc(-c3ccc(C(=O)N(C)C)cc3)nc3ccccc23)c1,max response,[1],0.225%
same,AC50,[3],"1.26 µM [rising, partial curve, poor fit]"
same,max response,[2],10.6%
COc1cc(/C=C/C(=O)c2cccs2)cc(OC)c1OC,max response,[1],60.9%
same,max response,[2],-2.99%
COc1cc2cc3c4cc(OC)c(OC)cc4cc[n+]3c(C)c2cc1OC,max response,[1],12.5%
same,AC50,[3],"28.2 µM [rising, single point]"
same,max response,[2],30.9%
COc1ccc(NC(=O)N2CCCC3(CCN(C(=O)c4ccco4)CC3)C2)cc1,max response,[1],21.8%
same,AC50,[3],"1.78 µM [rising, full curve, poor fit]"
same,max response,[2],34.5%
